Data reported in paper PMC6919601, “Identification of Plasmodium dipeptidyl aminopeptidase allosteric inhibitors by high throughput screening” (PLoS ONE, 2019).
Where “and” joins values, the source holds several entries; their conditions need not be identical. Equal values may be shown once. The whole screen tested about 110,000 compounds, of which about 230 (0.21%) showed an effect of 50% or more. This is one part of the list.

What follows are compounds tested against DPAP1 (Plasmodium falciparum, UniProt Q8IIJ9) (assay: primary screen, percent inhibition; read by cleavage of a fluorogenic dipeptide substrate; higher = more effect of the substance).
Chain of DPAP1 (Q8IIJ9 whole entry, looked up): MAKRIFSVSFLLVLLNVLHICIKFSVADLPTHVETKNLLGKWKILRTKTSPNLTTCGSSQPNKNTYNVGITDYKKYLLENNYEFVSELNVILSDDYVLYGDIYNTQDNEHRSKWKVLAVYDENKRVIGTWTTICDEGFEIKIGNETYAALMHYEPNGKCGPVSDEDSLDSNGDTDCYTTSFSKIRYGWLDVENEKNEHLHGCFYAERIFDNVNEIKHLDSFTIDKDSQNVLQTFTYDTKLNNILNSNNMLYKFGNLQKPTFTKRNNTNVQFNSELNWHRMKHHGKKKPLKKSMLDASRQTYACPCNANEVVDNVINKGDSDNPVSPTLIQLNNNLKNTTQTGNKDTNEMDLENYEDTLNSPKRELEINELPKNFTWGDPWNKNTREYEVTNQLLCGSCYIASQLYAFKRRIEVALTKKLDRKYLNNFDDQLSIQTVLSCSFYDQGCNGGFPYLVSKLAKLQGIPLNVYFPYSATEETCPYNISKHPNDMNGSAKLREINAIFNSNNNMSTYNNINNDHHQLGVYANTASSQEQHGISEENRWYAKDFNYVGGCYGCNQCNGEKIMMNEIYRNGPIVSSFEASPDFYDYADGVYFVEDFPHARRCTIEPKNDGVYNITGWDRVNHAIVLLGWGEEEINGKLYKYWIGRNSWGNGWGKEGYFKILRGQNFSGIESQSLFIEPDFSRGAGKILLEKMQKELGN
Set-up: species or system P. falciparum D10 trophozoite lysates; single well
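Also: 30 min substrate incubation versus DMSO and 10 µM JCP410 controls.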

Row | SMILES | % Inhibition @ 10 uM
1 | CCOC(=O)N1CCN(C(=O)CSc2nnc(-c3ccc(C)c(C)c3)o2)CC1 | 1.86%
2 | Cc1ccc(-c2nn(C)c(=O)c3ccccc23)cc1CNC(=O)c1cccs1 | 5.44%
3 | CCOc1ccccc1C1C(C(=O)OC)=CN(Cc2ccc(OC)c(OC)c2)C=C1C(=O)OC | 3.45%
4 | CNCC(O)c1ccc2cc[nH]c2c1 (stereo not drawn) | 4.93%
5 | CCOc1ccc(C2(O)CSC3=C(C#N)C(c4cccc(Cl)c4)CC(=O)N32)cc1 (stereo not drawn) | 1.64%
6 | CCOC(=O)c1[nH]c2c([N+](=O)[O-])cccc2c1CC | 2.65%
7 | O=C(O)C1C2CCC(C2)C1C(=O)Nc1ccc(Cl)c(Cl)c1 (stereo not drawn) | -0.0938%
8 | Cn1c2ccccc2n2nc(-c3ccccc3)nc12 | 8.75%
9 | CCC(C)(C)c1ccc(OCC(=O)Nc2nccs2)cc1 | -5.58%
10 | COCCCn1c(=O)c2sccc2n2c(CCCC(=O)N3CCN(c4ccccn4)CC3)nnc12 | -1.35%
11 | CC1CC(C)CN(C(=O)Cn2cnc3onc(-c4ccc(F)cc4)c3c2=O)C1 (stereo not drawn) | -4.55%
12 | c1ccc2oc(NC3=NCN(CC4CCCO4)CN3)nc2c1 (stereo not drawn) | 0.032%
13 | COc1ccc(C(=O)Nc2ccc(Cl)cc2C(=O)N2CCCC(C)C2)cc1 (stereo not drawn) | -3.1%
14 | Cc1cc2c(cc1C)C(c1cc3c(cc1Cl)OCO3)CC(=O)N2 (stereo not drawn) | -1.02%
15 | COc1cccc(C(=O)Nc2c(-c3cccs3)nc3ccccn23)c1OC | 0.813%
16 | CCN1CCN(C(=O)CNS(=O)(=O)c2ccc(Br)s2)CC1 | -0.601%
17 | Oc1ccc(CN2CCN(c3cccc(Cl)c3)CC2)cc1 | -1.92%
18 | Cn1c2ccccc2c2cnn(CC(=O)N3CCOCC3)c(=O)c21 | -5.49%
19 | COc1cc(C2C(C(=O)c3ccc(C)cc3)=C(O)C(=O)N2c2cccnc2)ccc1O (stereo not drawn) | 0.408%
20 | COc1ccc(CN2CCSCC2)cc1Br | -5.68%
21 | Brc1ccc(NCc2ccccn2)cc1 | -2.35%
22 | O=C(Nc1ccc(Cl)cn1)C1CCCN(c2ncnc3c2nc2n3CCCCC2)C1 (stereo not drawn) | 0.00353%
23 | COc1ccc(CC(=O)N2CCc3cc(OC)c(OC)cc3C2COc2ccccc2OC)cc1 (stereo not drawn) | 0.426%
24 | O=C(Cn1c(=O)n(Cc2ccco2)c(=O)c2sc3ccccc3c21)NCc1ccc(Cl)cc1 | -2.41%
25 | CCS(=O)(=O)C1=NSC2=NC(=O)/C(=C\c3ccc(O)c(O)c3)C(=N)N21 | -5.27%
26 | CCCN(CCC)CC/N=c1\c(O)c(O)\c1=N/C1CCN(C(=O)OCC)CC1 | -1.44%
27 | Cc1ccc(S(=O)(=O)NC2=NCN(c3ccc(Cl)cc3)CN2)cc1 | -1.38%

Row | SMILES | % Inhibition @ 10 uM
28 | CC1(C)CC(=O)c2cnc(-c3ccncc3)nc2C1 | -4.49%
29 | CC(NC(=O)c1coc2nc3ccccc3nc12)c1ccccc1 (stereo not drawn) | -2.72%
30 | CCOc1ccc(C(C)NC(=O)c2ccccc2Cl)cc1OCC (stereo not drawn) | 5.39%
31 | COc1cccc(C(=O)Nc2ccc(C(=O)NCC3CCCO3)cc2)c1 (stereo not drawn) | 4.11%
32 | Cc1cc(Cl)c(C(=O)NC(C)C2CC2)cc1Cl (stereo not drawn) | 2.59%
33 | CC(C)C(NC(=O)c1ccc(CN2CCOCC2)cc1)C(C)C | -6.36%
34 | Cn1ncc(Br)c1C(=O)N1CCCCC1 | 0.774%
35 | Cc1cccc(NC(=O)C2CCCN(c3ncnc4onc(C)c34)C2)n1 (stereo not drawn) | 4.67%
36 | O=S(=O)(Nc1nc2ccccc2nc1NCCc1ccccc1)c1ccccc1 | -8.29%
37 | COc1ccc(S(=O)(=O)N(C)CC(=O)N2CCC(C(N)=O)CC2)cc1 | -8.92%
38 | CC(=O)c1ccc2sc3ccc(C(C)=O)cc3c2c1 | -6.71%
39 | OC(c1ccccc1)(c1ccccc1)C1CCCN1Cc1ccccc1 (stereo not drawn) | -4.75%
40 | OC(c1ccncc1)C(O)c1ccncc1 (stereo not drawn) | -0.415%
41 | O=c1oc2c(Br)cc(Br)cc2cc1-c1nc(-c2ccccc2)cs1 | 0.98%
42 | CCN(Cc1ccccc1)C(=O)CSc1nc2cn(CC)nc2c(=O)n1Cc1ccc(C)cc1 | -8.26%
43 | CCOc1ccccc1NC(=O)c1ccc(OC)cc1OC | -4.43%
44 | CCN(C/C=C/c1ccccc1)CCN(C)C | -4.04%
45 | COc1c(Cl)cc(Cl)cc1/C=C1\N=C(c2ccccc2)OC1=O | -6.74%
46 | Cc1ccc(C(=O)Nc2sc3c(c2C(=O)N(C)C)CCC(C)C3)cc1 (stereo not drawn) | -0.82%
47 | N#C/C(=C\Nc1cccc(F)c1)c1nc(-c2ccccc2)cs1 | -3.49%
48 | CN(C)CCN(C)Cc1cccc(F)c1 | -1.62%
49 | CCN(CCN(C)C)Cc1ccccc1F | -0.0494%
50 | N#Cc1ccc(-c2cccs2)nc1O | -3.32%
51 | CCCCNC(=O)c1ccc(CSCc2ccc(Cl)cc2)o1 | 5.23%
52 | COCc1cc(C)nc2sc3c(=O)n(CCc4ccccc4)nnc3c12 | -0.808%
53 | CCCn1c(N2CCCCCC2)nc2c1c(=O)[nH]c(=O)n2C | 2.91%
54 | CCOC(=O)c1[nH]c(C)c(C)c1O | 3.3%

Row | SMILES | % Inhibition @ 10 uM
55 | CC1C2CC(C(CN(C)C)/C2=N/O)C1(C)C (stereo not drawn) | 0.937% and -5.62%
56 | COc1ccccc1C(=O)n1nc(-c2ccc(Cl)cc2)nc1NCc1ccco1 | -2.91%
57 | O=C(C1CCCN1C(=O)OCc1ccccc1)N1CCCCCC1 (stereo not drawn) | 3.86%
58 | N#Cc1nc(/C=C/c2cccs2)oc1N1CCCC1 | -3.71%
59 | CC1CCN(Cn2c(=S)oc3ccccc32)CC1 | 12.8%
60 | COc1ccc(/C=C(\C)C(=O)c2c(C)cc(C)nc2O)cc1 | 2.91%
61 | CCOc1ccc2nc(N(CCN(C)C)C(=O)Cc3ccccc3)sc2c1 | -5.01%
62 | C=CCNC(=O)c1oc2ccc(S(=O)(=O)N(CC)CC)cc2c1C | 8.2%
63 | Cc1ccc(S(=O)(=O)c2ccc(C)c(S(N)(=O)=O)c2)cc1S(N)(=O)=O | -3.03%
64 | CCC[C@@H](/C=C/S(=O)(=O)c1ccccc1)NC(=O)CCc1c(F)cccc1F | 2.87%
65 | COc1ccccc1N(CC(=O)Nc1ccccc1C(F)(F)F)S(=O)(=O)c1ccccc1 | 2.65%
66 | CC1CCCC(NC(=O)CC/N=c2/c(N3CCCC3)c(O)c2=O)C1C (stereo not drawn) | -3.74%
67 | O=C(NCCc1csc2nc(-c3ccccc3)nn12)c1ccccc1Br | -1.49%
68 | CCC1CCCN1Cn1cnc2c3cc(Cl)ccc3nc-2c1O (stereo not drawn) | -1.74%
69 | CN(C(=O)C1c2ccccc2C(=O)N2CCc3ccccc3C12)C1CCCCC1 (stereo not drawn) | -1.29%
70 | Cc1ccc(N2C(=O)NC(=O)/C(=C/Nc3cccc(Cl)c3)C2=O)cc1 | -2.8%
71 | c1ccc(-c2oc3ncn4ncnc4c3c2-c2ccccc2)cc1 | -0.0678%
72 | COCCCNC(=O)c1cccs1 | -3.04%
73 | CN1CCCN(Cc2c[nH]c3ccccc23)CC1 | -3.56%
74 | CCCN(CCC)C(=O)C1CCC(C)(C(=O)O)C1(C)C (stereo not drawn) | 6.86%
75 | NC(=O)C1CCN(Cc2cccc(C(F)(F)F)c2)CC1 | 3.48%
76 | COc1cccc(CNC(=O)CNC(=S)N(Cc2ccccc2)Cc2cccnc2)c1 | -0.406%
77 | Cc1ccc(NC(=O)c2ccc(C)c([N+](=O)[O-])c2)cc1Cl | 2.34%
78 | CC(=O)Nc1cc(C(N)=O)cc(C(N)=O)c1 | -5.11%
79 | COc1ccc(-c2cc(C)no2)cc1S(=O)(=O)N1CCN(C2CCCCC2)CC1 | -2.44%
80 | CCN1CCCC1CNS(=O)(=O)c1ccc(-c2cc(C(F)(F)F)no2)s1 (stereo not drawn) | 1.22%
81 | N#CCNC(=O)[C@H](CC1CCCCC1)NC(=O)c1cccc(Br)c1 | -1.83%

Row | SMILES | % Inhibition @ 10 uM
82 | CN1CCN(C2CC(=O)N(c3cccc(Br)c3)C2=O)CC1 (stereo not drawn) | 1.35%
83 | COc1ccccc1-c1c(C)nn2c(-c3ccccc3)cc(C)nc12 | 2.73%
84 | Cc1ccc2c(c1)n1cnnc1c1nncn21 | 0.974%
85 | Cn1nnnc1SCCNCc1ccccc1C(F)(F)F | -3.49%
86 | Cc1ccc(C)c(Cn2ncn3c(cc4cc(C)ccc43)c2=O)c1 | -5.63%
87 | CCOCCCNc1oc(/C=C/c2ccc(OCC)cc2)nc1C#N | 5.68%
88 | CCCCCCN1C(=O)C(=O)c2ccccc21 | 0.121%
89 | CCOC(=O)N1CCC(NC(=O)c2cccnc2SC)CC1 | 0.238%
90 | COc1ccc(N2CCN(Cc3sccc3C)CC2)cc1 | -6.47%
91 | COc1ccc(-c2nc(CSCC(=O)NC(C)CCc3ccccc3)c(C)o2)cc1 (stereo not drawn) | 0.475%
92 | O=C(Nc1ccc(Cl)cc1)NC1CCCC1 | -1.29%
93 | CCOc1ccccc1CNc1ncc(-c2cccc(Cl)c2)n1C | -4.78%
94 | CC1CCc2c(sc(NC(=O)CCC(=O)O)c2C#N)C1 (stereo not drawn) | 2.67%
95 | CCOc1ccc(/C=C2\NC(=O)NC2=O)c2ccccc12 | 4.18%
96 | CC(=O)C1=C(C)N=C(S)NC1c1ccco1 (stereo not drawn) | 0.962%
97 | Cc1nc(C)c(-c2csc(Nc3ccc(Br)cc3)n2)s1 | -0.546% and 1.35%
98 | Nc1nonc1-n1cc(-c2ccccc2)nn1 | -7.35%
99 | O=[N+]([O-])c1ccccc1CN1CCN(c2ccccc2F)CC1 | -0.828%
100 | O=C(NCc1ccccc1)C1CCCN(c2nc3ccccc3n3cccc23)C1 (stereo not drawn) | 5.3%
101 | CCC(CC)C(=O)Nc1ccccc1C(=O)O | -3.76%
102 | Cc1nc2ccc(S(=O)(=O)NC(CC(C)C)C(=O)NCc3ccccn3)cc2s1 (stereo not drawn) | 3.75%
103 | Cc1[nH]c2ccccc2c1CCn1c(N)cc(=O)[nH]c1=O | 0.503%
104 | COc1cccc(-c2nc3sc(-c4cccc(OC)c4)nc3s2)c1 | 2.57%
105 | CCOc1ccc(CCNC(=O)c2sc3nc4n(c(=O)c3c2C)CCCCC4)cc1 | 2.89%
